Data: PubChem BioAssay AID192 (DTP/NCI, 2004)
Toxic doses and inconclusive results are not listed. A number of entries come with more than one value. This is not the full list of results. An entry can have further records. Values given together repeat one measurement across runs, samples, wells, individuals or studies. Marks in square brackets tell the records apart. Letters hold for one entry only. Numbered stars: 1 amine (or outer) side, 2 acyl side, 3 side chain; on linkers, the order of the positions; unused ones are H or OH. Bridge positions count the residues as written; N and C are the ends. Square brackets hold non-standard residues; d marks the D form. Peptide text beside a SMILES is read from it. I, II: the chains in the order shown. Actinocin(1to9) = Cc1c2oc3c(C)ccc(C(=O)[*:2])c3nc-2c(C(=O)[*:1])c(N)c1=O; NMeV = CN[CH](C(=O)O)C(C)C; Aze = O=C(O)[CH]1CCN1; Sar = CNCC(=O)O

System: BDF1 mice, B16 melanoma ip, median survival T/C
Assay: NCI In Vivo Anticancer Drug Screen. Data for tumor model B16 Melanoma (intraperitoneal) in B6D2F1 (BDF1) mice
Conditions: endpoint: median survival time, higher = longer survival
Experimental: The antitumor activity of compounds was measured in mice bearing transplantable tumors. Survival or tumor size were measured and the results are expressed as the measurement made in the treated group (T) divided by the measurement made in the vehicle treated control group (C). The tumor model used in this assay is B16 Melanoma (intraperitoneal) in B6D2F1 (BDF1) mice

[1] = dose: 50.0 mg/kg/injection, schedule: Q01DX009 (ip), vehicle: saline with Tween-80
[2] = dose: 100.0 mg/kg/injection, schedule: Q01DX009 (ip), vehicle: saline with Tween-80
[3] = dose: 1.5 mg/kg/injection, schedule: Q01DX009 (ip), vehicle: saline

SMILES: OC(CCl)CN1CC[N+]2(CC1)CC[N+]1(CCN(CC(O)CCl)CC1)CC2 (stereo not given)
- T/C (dose: 150.0 mg/kg/injection, schedule: Q01DX009 (ip), vehicle: water): 124 % of control and 154 % of control

SMILES: COc1ccc2c(c1OC(C)=O)-c1cc(O)cc3c1C(C2)N(C(=O)CN(CCCl)CCCl)CC3 (stereo not given)
- T/C (dose: 50.0 mg/kg/injection, schedule: Q04DX003 (ip), vehicle: DMSO): 98 % of control and 170 % of control

SMILES: CCN(CC)CCCC(C)Nc1c2ccc(Cl)cc2nc2ccc(OC)cc12 (stereo not given)
- T/C (dose: 64.0 mg/kg/injection, schedule: Q01DX009 (ip), vehicle: saline with Tween-80): 121 % of control and 171 % of control

SMILES: CCC1(O)CC2CN(CCc3c([nH]c4ccccc34)C(C(=O)OC)(c3cc4c(cc3OC)N(C)C3C(O)(C(=O)NCCSSCCNC(=O)C5(O)C(O)C6(CC)C=CCN7CCC8(c9cc(C%10(C(=O)OC)CC%11CN(CCc%12c%10[nH]c%10ccccc%12%10)CC(O)(CC)C%11)c(OC)cc9N(C)C58)C76)C(O)C5(CC)C=CCN6CCC43C65)C2)C1 (stereo not given)
- T/C (dose: 389.0 micrograms/kg/injection, schedule: Q04DX003 (ip), vehicle: saline): 118 % of control and 156 % of control

SMILES: COc1cccc2c1C(=O)c1c(O)c3c(c(O)c1C2=O)CC(O)(C(=O)CO)CC3OC1CC(N)C(O)C(C)O1 (stereo not given)
- T/C (dose: 5.8 mg/kg/injection, schedule: Q01DX009 (ip), vehicle: saline): 123 % of control and 200 % of control
- T/C (dose: 11.5 mg/kg/injection, schedule: Q01DX001 (ip), vehicle: water): 124 % of control and 159 % of control
- T/C (dose: 53.3 mg/kg/injection, schedule: Q01DX001 (ip), vehicle: water): 114 % of control and 193 % of control

SMILES: CCCCCCCCCCCCCCCCCCCCCC(=O)Nc1ccn(C2OC(CO)C(O)C2O)c(=O)n1 (stereo not given)
- T/C [1]: 106 % of control and 155 % of control
- T/C [2]: 119 % of control and 152 % of control

SMILES: CC1CCC(NC(=O)N(CCCl)N=O)CC1 (stereo not given)
- T/C (dose: 16.0 mg/kg/injection, schedule: Q01DX009 (ip), vehicle: saline): 86 % of control and 176 % of control

SMILES: CO[C@@]12[C@H](COC(N)=O)C3=C(C(=O)C(C)=C(N)C3=O)N1C[C@@H]1N[C@@H]12
- T/C (dose: 0.9 mg/kg/injection, schedule: Q01DX009 (ip), vehicle: saline): 97 % of control and 169 % of control
- T/C [3]: 42 % of control, 159 % of control, 166 % of control

SMILES: COc1cccc2c1C(=O)c1c(O)c3c(c(O)c1C2=O)CC(O)(C(C)=O)CC3OC1CC(N)C(O)C(C)O1 (stereo not given)
- T/C (dose: 2.9 mg/kg/injection, schedule: Q01DX009 (ip), vehicle: saline): 123 % of control and 174 % of control
- T/C (dose: 11.7 mg/kg/injection, schedule: Q04DX003 (ip), vehicle: saline): 118 % of control and 175 % of control

SMILES: COC1C(C)OC(OC2CC(C)(O)Cc3cc4c(c(O)c32)C(=O)c2c(O)cc3c(c2C4=O)OC2OC3(C)C(O)C(N(C)C)C2O)C(OC)C1(C)OC (stereo not given)
- T/C (dose: 3.24 mg/kg/injection, schedule: Q04DX003 (ip), vehicle: lactic acid): 115 % of control and 191 % of control

SMILES: COc1cccc2c1C(=O)c1c(O)c3c(c(O)c1C2=O)C[C@@](O)(C(C)=O)C[C@@H]3OC1CC(N(Cc2ccccc2)Cc2ccccc2)C(O)C(C)O1 (stereo not given in full)
- T/C (dose: 50.0 mg/kg/injection, schedule: Q01DX001 (ip), vehicle: water): 121 % of control and 168 % of control

SMILES: Cc1ccc(S(=O)(=O)N/N=C/C(=O)O)cc1
- T/C (dose: 35.0 mg/kg/injection, schedule: Q01DX009 (ip), vehicle: saline with Tween-80): 103 % of control and 185 % of control

SMILES: CO[C@H]1C[C@](C)(O)Cc2cc3c(c(O)c21)C(=O)c1c(O)cc2c(c1C3=O)O[C@@H]1O[C@@]2(C)[C@H](O)[C@@H](N(C)C)[C@@H]1O
- T/C (dose: 18.0 mg/kg/injection, schedule: Q04DX003 (ip), vehicle: lactic acid): 115 % of control and 158 % of control

SMILES: O=P1(N(CCCl)CCCl)NCCCO1 (stereo not given)
- T/C (dose: 100.0 mg/kg/injection, schedule: Q04DX003 (ip), vehicle: saline): 99 % of control and 164 % of control

SMILES: O=C1NC2(CCCCC2)C(=O)N1CCN(CCCl)CCCl
- T/C [3]: 123 % of control and 158 % of control
- T/C (dose: 6.0 mg/kg/injection, schedule: Q01DX009 (ip), vehicle: saline): 112 % of control and 155 % of control

SMILES: O=c1[nH]c(=O)n(C2CC(O)C(CO)O2)cc1F (stereo not given)
- T/C [1]: 122 % of control and 176 % of control

SMILES: Cc1c2oc3c(C)ccc(C(=O)NC4C(=O)NC(C(C)C)C(=O)N5CCCC5C(=O)N(C)CC(=O)N(C)C(C(C)C)C(=O)OC4C)c3nc-2c(C(=O)NC2C(=O)NC(C(C)C)C(=O)N3CCC3C(=O)N(C)CC(=O)N(C)C(C(C)C)C(=O)OC2C)c(N)c1=O (stereo not given) (I: TV[Aze][Sar][NMeV] / II: TVP[Sar][NMeV]; ester I:1-I:C, II:1-II:C; linker I:N-II:N via Actinocin(1to9); configuration not given here)
- T/C (dose: 0.45 mg/kg/injection, schedule: Q04DX003 (ip), vehicle: saline + alcohol): 123 % of control and 168 % of control
- T/C (dose: 0.6 mg/kg/injection, schedule: Q04DX003 (ip), vehicle: saline + alcohol): 89 % of control and 164 % of control

SMILES: COC(C(=O)C(O)C(C)O)C1Cc2cc3cc(OC4CC(OC(C)=O)C(OC5CC(O)C(OC)C(C)O5)C(C)O4)cc(O)c3c(O)c2C(=O)C1OC1CC(OC2CC(OC3CC(C)(O)C(OC(=O)C(C)C)C(C)O3)C(O)C(C)O2)C(O)C(C)O1 (stereo not given)
- T/C (dose: 0.25 mg/kg/injection, schedule: Q01DX009 (ip), vehicle: saline): 123 % of control, 151 % of control [sample A] and 167 % of control [sample B]

SMILES: O=CC(NC(=O)N(CCCl)N=O)C(O)C(O)C(O)CO (stereo not given)
- T/C (dose: 2.0 mg/kg/injection, schedule: Q01DX009 (ip), vehicle: saline): 94 % of control and 172 % of control
- T/C (dose: 45.0 mg/kg/injection, schedule: Q01DX001 (ip), vehicle: saline): 88 % of control and 199 % of control

SMILES: O=P1(NCCCl)OCCCN1CCCl (stereo not given)
- T/C (dose: 200.0 mg/kg/injection, schedule: Q02DX009 (ip), vehicle: saline): 90 % of control and 160 % of control

SMILES: S=C(Nc1ccccc1)Nc1ccccc1S
- T/C (dose: 400.0 mg/kg/injection, schedule: Q01DX009 (ip), vehicle: Klucel (hydroxypropylcellulose) (HPC)): 93 % of control and 194 % of control

SMILES: CC1OC(OC2CC(O)(C(=O)CO)Cc3c(O)c4c(c(O)c32)C(=O)c2ccccc2C4=O)CC(N)C1O (stereo not given)
- T/C (dose: 360.0 micrograms/kg/injection, schedule: Q04DX003 (ip), vehicle: water): 123 % of control and 157 % of control

SMILES: COC1=NCN=C2SC=C(N)N=C12
- T/C (dose: 25.0 mg/kg/injection, schedule: Q01DX009 (ip), vehicle: saline): 94 % of control, 109 % of control, 200 % of control

SMILES: C1CN1c1nc(N2CC2)nc(N2CC2)n1
- T/C (dose: 1.0 mg/kg/injection, schedule: Q01DX009 (ip), vehicle: saline with Tween-80): 109 % of control, 122 % of control, 152 % of control

SMILES: ClCC[N+]12CC[N+](CCCl)(CC1)C2
- T/C [2]: 121 % of control and 157 % of control

SMILES: O=C1NC(c2ccccc2)C(=O)N1CCN(CCCl)CCCl (stereo not given)
- T/C (dose: 12.5 mg/kg/injection, schedule: Q01DX009 (ip), vehicle: saline): 109 % of control and 161 % of control

SMILES: N[C@@H](Cc1ccc(N(CCCl)CCCl)cc1)C(=O)O
- T/C (dose: 3.0 mg/kg/injection, schedule: Q01DX009 (ip), vehicle: carboxymethylcellulose (CMC)): 107 % of control and 197 % of control
